Results published in PubChem BioAssay AID624171 (National Center for Advancing Translational Sciences (NCATS), 2012).
Hit rate of the full screen: of about 410,000 compounds, about 1,200 (0.29%) were called active. The inconclusive results got no clear call from the source; some entries with a clear call stand among them for comparison. Calls come from the whole dose curve; as a rule, active = well fitted activation curve with a large enough effect; inconclusive = small, poorly fitted or top-dose-only effect; inactive = flat fitted curve, though single readings scatter. Potencies beside an inconclusive call are fits to weak or partial responses and may not hold up.

Experiment: qHTS of Nrf2 Activators; note: nearly all actives have a fitted effect of over 65% in size
Conditions: AREc32 ARE-luciferase reporter (MCF7-derived line), luminescence, 24 h; series mostly up to 46.1 µM
Outline: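 Each well held 1000 AREc32 cells, which were incubated with compound for 24 hr at 37 deg C after overnight attachment, and ARE reporter activity was quantified by firefly luciferase luminescence.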
Potency is the fitted concentration of half-maximal effect; tags give direction and shape of the fitted curve.

Potency, active:
O=C(/C=C/c1ccco1)OCc1nnc(-c2ccc(Cl)cc2)o1 14.1 µM
O=C(Nc1ccc2[nH]c(=O)[nH]c2c1)c1ccc([N+](=O)[O-])o1 12.6 µM
COCCCNC(=O)/C=C1\Sc2ccccc2N(Cc2ccccc2F)C1=O 11.2 µM
CC(C)CC(=O)/C=C/n1c(=S)oc2ccccc21 11.2 µM

Potency, inconclusive:
O=C(Nc1ccccc1O)c1ccc(NC(=O)C2CC2)cc1 15.8 µM [activator, single point]
O=C(CN1C(=O)C2C3C=CC(C3)C2C1=O)OCC(=O)c1ccc(Cl)c([N+](=O)[O-])c1 (stereo not given) 35.5 µM [activator, single point]
Clc1ccc(Nc2ccc3ccccc3n2)cc1 2.82 µM [activator, partial curve, poor fit]
O=C1CN(C(=O)/C=C/c2ccco2)c2ccccc2N1 12.6 µM [activator, partial curve, poor fit]
Cc1ccc(C(=O)Nc2cccc3ccccc23)o1 15.8 µM [activator, single point]
O=C(CSc1nc2ccccc2o1)Nc1nc2ccccc2s1 17.8 µM [activator, single point]
O=C(COCc1cc(-c2ccco2)on1)Nc1cccc(Cl)c1Cl 12.6 µM [activator, partial curve]
Cc1cc(C(=O)NNC(=O)c2cccc(C(F)(F)F)c2)no1 15.8 µM [activator, single point]
CC(C)CCn1c(O)c(N=NC(=O)c2ccco2)c2ccccc21 15.8 µM [activator, partial curve, poor fit]
Oc1ccccc1OCc1nc2ccccc2s1 15.8 µM [activator, partial curve, poor fit]
CC1=C(C(=O)Nc2ccccc2)C(c2ccc(C)o2)n2c(s/c(=C\c3ccco3)c2=O)=N1 (stereo not given) 17.8 µM [activator, single point]
Cc1nc(Sc2ccccc2)c(C#N)c(C)c1[N+](=O)[O-] 25.1 µM [activator, single point]
O=C(NC(=S)Nc1cnc2ccccc2c1)c1ccccc1 2.24 µM [activator, full curve, poor fit]
Clc1ccccc1-c1nnc(-c2cccnc2)o1 17.8 µM [activator, single point]
COc1c(-c2ccc(O)c(O)c2)oc2cc(O)cc(O)c2c1=O 35.5 µM [activator, single point]
COc1ccc2c(c1)nc(SCC(=O)c1cccs1)n2C 12.6 µM [activator, single point]
N#C/C(=C\c1ccc[nH]1)C(=O)c1ccccc1 22.4 µM [activator, single point]
CN(C)c1nc(/C=C(\C#N)C(N)=O)c(Cl)n1-c1ccc(F)cc1 15.8 µM [activator, single point]
O=C(Nc1ccc(F)cc1F)c1cc(-c2ccco2)on1 35.5 µM [activator, partial curve, poor fit]
CC(=C/c1ccco1)/C=N/NC(=O)Cc1cccn1C 14.1 µM [activator, partial curve, poor fit]
O=C(NCc1ccco1)/C(=C/c1ccc(C(F)(F)F)cc1)c1nc2ccccc2[nH]1 12.6 µM [activator, partial curve]
CCc1ccc(CN2CCC(Oc3ccc(C(=O)NCc4ccccn4)cc3)CC2)o1 25.1 µM [activator, single point]
O=C(Nc1ccccc1[N+](=O)[O-])c1cncc(Br)c1 22.4 µM [activator, single point]
CC(=O)Nc1ccc(C(=O)/C=C/c2ccco2)cc1 20 µM [activator, single point]
Clc1ccccc1N=C1NN=C(c2cccs2)CS1 5.62 µM [activator, partial curve, poor fit]
COc1ccc(-c2csc3nc(-c4ccccc4F)oc(=O)c23)cc1OC 22.4 µM [activator, single point]
CCCN(CC(=O)Nc1ccccc1C)C(=O)CCl 12.6 µM [activator, partial curve, poor fit]
O=C(Nc1cccc(F)c1)/C(=C\c1ccco1)NC(=O)c1ccco1 12.6 µM [activator, single point]
Clc1ccc(C=NNc2ccccn2)c(Cl)c1 2.82 µM [activator, partial curve, poor fit]
CCCCOC(=O)/C(=C\c1ccc([N+](=O)[O-])o1)NC(=O)c1ccccc1 31.6 µM [activator, single point]

Potency, inactive:
CN1c2ccsc2/C(=N/NC(=O)c2c(F)cccc2F)CS1(=O)=O
COC(=O)c1ccccc1NC(=O)C(C)c1ccc([N+](=O)[O-])cc1 (stereo not given)
COc1ccc(C2N3CC4(C)CN2CC(c2ccccc2)(C3)C4=O)cc1 (stereo not given)
CCOC(=O)c1nnc2c(-c3ccc(Cl)cc3)c(C)nn2c1C
Cc1cccc(N2CCN(c3nc4ccc(C)cc4n4cnnc34)CC2C)c1 (stereo not given)
CC1CN(S(=O)(=O)c2cc(C(=O)NCCC3=CCCCC3)ccc2Cl)CC(C)O1 (stereo not given)
Cc1csc(NC(=O)C2=NN(c3ccccc3)C(=O)CC2)n1
CCN(CC)CCC(c1cc(OC)c(OC)c(OC)c1)c1c(OC)cc(OC)c2ccc(=O)oc12 (stereo not given)
CCOc1cc2[nH]c(=O)n(CCCC(=O)N3CCN(c4cccc(Cl)c4)CC3)c(=O)c2cc1OCC
O=C(C[C@H]1C[C@H](C(=O)N2CCCCC2)[C@@]2(CCc3ccccc3)c3[nH]c4cc(-c5ccco5)ccc4c3CCN2C1=O)NCc1ccco1
O=C(CN1c2cccc3cccc(c23)S1(=O)=O)N1CCOCC1
